The results in this text go back to US20170342169A1 (published 2017).

Assay [1] concerns the target T1, soluble form of the extracellular domain of human CD40 (Creative BioMart) (human, UniProt P25942 part only).
T1 construct: Bought
The assay can be described thus: SPR. (In SPR one partner is held on a chip, and binding of the other changes the refractive index at the surface.)

A further assay deals with T2, human mesothelin (human, UniProt Q13421 296-580, limits assumed).
T2 construct: also called Human MSLN
The experiment in a line: SPR.

The target of assay [2] is T3, soluble form of the extracellular domain of cynomolgus (cyno) CD40 (Creative BioMart) (cynomolgus, UniProt G7PG38 21-193).
T3 construct: extracellular domain; also called Cynomolgus CD40
The assay can be described thus: SPR.

The next assay concerns the target T4, cynomolgus mesothelin (cynomolgus).
T4 construct: also called cynoMSLN; Cyno MSLN
The assay can be described thus: SPR.

Assay [3] addresses CD40 (binding assays of Example 4; species and form not stated) (UniProt P25942 part only, limits assumed). The experiment in a line: antigen binding, method not stated.

Chain of human mesothelin (Q13421 other isoform, or with tags, fused parts or gaps limits assumed): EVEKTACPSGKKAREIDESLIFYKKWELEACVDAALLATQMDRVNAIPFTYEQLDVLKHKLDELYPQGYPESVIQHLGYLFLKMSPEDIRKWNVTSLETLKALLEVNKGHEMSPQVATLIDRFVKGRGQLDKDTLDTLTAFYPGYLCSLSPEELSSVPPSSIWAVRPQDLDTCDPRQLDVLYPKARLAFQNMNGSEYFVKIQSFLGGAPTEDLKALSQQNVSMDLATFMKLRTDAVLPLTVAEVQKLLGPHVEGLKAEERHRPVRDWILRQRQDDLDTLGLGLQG

B1: V5-2 (bispecific antibody)
chain: EVQLQESGPGLVKPSETLSLTCTVSGYSITSNYYWNWIRQPPGKGLEWMGYIRYDGSNNYNPSLKNRVTISRDTSKNQFSLKLSSVTAADTAVYYCARLDYWGQGTTVTVSSGGGGSGGGGSGGGGSGGGGSGGGGSGGGGSDAVMTQTPLSLSVTPGQPASISCRSSQSLENTNGNTFLNWYLQKPGQSPQLLIYRVSNRFSGVPDRFSGSGSGTDFTLKISRVEAEDVGVYYCLQVTHVPFTFGQGTKLEIKR[human IgG1 Fc with C220S V263L (EU numbers) not written out]GGGGSGGGSGGGSGGGGSSYELTQPPSVSVSPGQTASITCSGDKLGDKYASWYQQKPGQSPVLVIYQDNRRPSGIPERFSGSNSGNTATLTISGTQAMDEADYYCQAWDSDTYVFGTGTKVTVLGGGGSGGGGSGGGGSGGGGSGGGGSGGGGSEVQLVQSGAEVKKPGASVKVSCKASGDTFKRYYVHWVRQAPGQGLEWMGIINPSGVSTTYAQKFQGRVTMTRDTSTSTVYMELSSLRSEDTAVYYCAEVRGSGFNYFGMDVWGQGTLVTVSS
For B1, the Kd – broadly, a measure of binding affinity in units of concentration – stood at 150 nM in assay [1], 2 nM in the assay with human mesothelin, 120 nM in assay [2] and 0.84 nM with cynomolgus mesothelin. Moreover, the koff (as a rule, the rate constant with which the complex falls apart) was found to be 0.25 s⁻¹ in assay [1], 2.8e-05 s⁻¹ with human mesothelin, 0.11 s⁻¹ in assay [2] and 5.9e-05 s⁻¹ with cynomolgus mesothelin. Besides, the association rate constant (kon) (in general, the second-order rate constant of association) in assay [1] was determined as 1.7e+06 M⁻¹ s⁻¹; with human mesothelin, 14000 M⁻¹ s⁻¹; in assay [2], 940000 M⁻¹ s⁻¹; in the assay with cynomolgus mesothelin, 70000 M⁻¹ s⁻¹.

B2: B42 (bispecific antibody, IgG1)
chain: DAVMTQTPLSLSVTPGQPASISCRSSQSLENTNGNTFLNWYLQKPGQSPQLLIYRVSNRFSGVPDRFSGSGSGTDFTLKISRVEAEDVGVYYCLQVTHVPFTFGQGTKLEIKRDLSGGGGSGGGGSGGGGSGGGGSTGEVQLQESGPGLVKPSETLSLTCTVSGYSITSNYYWNWIRQPPGKGLEWMGYIRYDGSNNYNPSLKNRVTISRDTSKNQFSLKLSSVTAADTAVYYCARLDYWGQGTTVTVSSR[human IgG1 Fc with C220S V273E (EU numbers) not written out]VDGASSPVNVSSPSVQDISYELTQPPSVSVSPGQTASITCSGDKLGDKYASWYQQKPGQSPVLVIYQDNRRPSGIPERFSGSNSGNTATLTISGTQAMDEADYYCQAWDSDTYVFGTGTKVTVLGQDLSGGGGSGGGGSGGGGSGGGGSTGEVQLVQSGAEVKKPGASVKVSCKASGDTFKRYYVHWVRQAPGQGLEWMGIINPSGVSTTYAQKFQGRVTMTRDTSTSTVYMELSSLRSEDTAVYYCAEVRGSGFNYFGMDVWGQGTLVTVSS
notes: huAb9-5 (VL-VH) N-terminal, HuAM15 (VL-VH) C-terminal, huIgG1 V273E
As for B2, a half-maximal effect in assay [3] (EC50) was put at 0.8 µg/mL.

B3: B40 (bispecific antibody, IgG1)
chain: EVQLQESGPGLVKPSETLSLTCTVSGYSITSNYYWNWIRQPPGKGLEWMGYIRYDGSNNYNPSLKNRVTISRDTSKNQFSLKLSSVTAADTAVYYCARLDYWGQGTTVTVSSDLSGGGGSGGGGSGGGGSGGGGSTGDAVMTQTPLSLSVTPGQPASISCRSSQSLENTNGNTFLNWYLQKPGQSPQLLIYRVSNRFSGVPDRFSGSGSGTDFTLKISRVEAEDVGVYYCLQVTHVPFTFGQGTKLEIKRLE[human IgG1 Fc with C220S V273E (EU numbers) not written out]VDGASSPVNVSSPSVQDISYELTQPPSVSVSPGQTASITCSGDKLGDKYASWYQQKPGQSPVLVIYQDNRRPSGIPERFSGSNSGNTATLTISGTQAMDEADYYCQAWDSDTYVFGTGTKVTVLGQDLSGGGGSGGGGSGGGGSGGGGSTGEVQLVQSGAEVKKPGASVKVSCKASGDTFKRYYVHWVRQAPGQGLEWMGIINPSGVSTTYAQKFQGRVTMTRDTSTSTVYMELSSLRSEDTAVYYCAEVRGSGFNYFGMDVWGQGTLVTVSS
notes: huAb9-5 (VH-VL) N-terminal, HuAM15 (VL-VH) C-terminal, huIgG1 V273E
With B3, the EC50 (in general, the midpoint of the concentration-response curve) in assay [3] came out at 0.4 µg/mL.

B4: B46 (bispecific antibody, IgG1)
chain: SYELTQPPSVSVSPGQTASITCSGDKLGDKYASWYQQKPGQSPVLVIYQDNRRPSGIPERFSGSNSGNTATLTISGTQAMDEADYYCQAWDSDTYVFGTGTKVTVLGQDLSGGGGSGGGGSGGGGSGGGGSTGEVQLVQSGAEVKKPGASVKVSCKASGDTFKRYYVHWVRQAPGQGLEWMGIINPSGVSTTYAQKFQGRVTMTRDTSTSTVYMELSSLRSEDTAVYYCAEVRGSGFNYFGMDVWGQGTLVTVSS[human IgG1 Fc with C220S V273E (EU numbers) not written out]VDGASSPVNVSSPSVQDIEVQLQESGPGLVKPSETLSLTCTVSGYSITSNYYWNWIRQPPGKGLEWMGYIRYDGSNNYNPSLKNRVTISRDTSKNQFSLKLSSVTAADTAVYYCARLDYWGQGTTVTVSSDLSGGGGSGGGGSGGGGSGGGGSTGDAVMTQTPLSLSVTPGQPASISCRSSQSLENTNGNTFLNWYLQKPGQSPQLLIYRVSNRFSGVPDRFSGSGSGTDFTLKISRVEAEDVGVYYCLQVTHVPFTFGQGTKLEIKR
notes: HuAM15 (VL-VH) N-terminal, huAb9-5 (VH-VL) C-terminal, huIgG1 V273E
B4 came in with an EC50 in assay [3] of 0.5 µg/mL.

B5: B41 (bispecific antibody, IgG1)
chain: DAVMTQTPLSLSVTPGQPASISCRSSQSLENTNGNTFLNWYLQKPGQSPQLLIYRVSNRFSGVPDRFSGSGSGTDFTLKISRVEAEDVGVYYCLQVTHVPFTFGQGTKLEIKRDLSGGGGSGGGGSGGGGSGGGGSTGEVQLQESGPGLVKPSETLSLTCTVSGYSITSNYYWNWIRQPPGKGLEWMGYIRYDGSNNYNPSLKNRVTISRDTSKNQFSLKLSSVTAADTAVYYCARLDYWGQGTTVTVSSR[human IgG1 Fc with C220S V273E (EU numbers) not written out]VDGASSPVNVSSPSVQDIEVQLVQSGAEVKKPGASVKVSCKASGDTFKRYYVHWVRQAPGQGLEWMGIINPSGVSTTYAQKFQGRVTMTRDTSTSTVYMELSSLRSEDTAVYYCAEVRGSGFNYFGMDVWGQGTLVTVSSDLSGGGGSGGGGSGGGGSGGGGSTGSYELTQPPSVSVSPGQTASITCSGDKLGDKYASWYQQKPGQSPVLVIYQDNRRPSGIPERFSGSNSGNTATLTISGTQAMDEADYYCQAWDSDTYVFGTGTKVTVLGQ
notes: huAb9-5 (VL-VH) N-terminal, HuAM15 (VH-VL) C-terminal, huIgG1 V273E
In the case of B5, the response in assay [3] was half-maximal at 0.5 µg/mL (EC50).

B6: B37 (bispecific antibody, IgG1)
chain: EVQLVQSGAEVKKPGSSVKVSCKASGYTFTDYYINWVRQAPGQGLEWIGWIFPGSGSVYCNEQFKGRATLTVDRSTSTAYMELSSLRSEDTAVYFCASSLGKFAYWGQGTLVTVSSDLSGGGGSGGGGSGGGGSGGGGSTGDIQMTQSPSSLSASVGDRVTITCKASQSVVTAVAWYQQKPGKSPKLLIYSASNRYTGVPSRFSGSGSGTDFTLTISSLQPEDFATYFCQQYSSYPYTFGGGTKVEIKR[human IgG1 Fc with C220S V273E (EU numbers) not written out]VDGASSPVNVSSPSVQDISYELTQPPSVSVSPGQTASITCSGDKLGDKYASWYQQKPGQSPVLVIYQDNRRPSGIPERFSGSNSGNTATLTISGTQAMDEADYYCQAWDSDTYVFGTGTKVTVLGQDLSGGGGSGGGGSGGGGSGGGGSTGEVQLVQSGAEVKKPGASVKVSCKASGDTFKRYYVHWVRQAPGQGLEWMGIINPSGVSTTYAQKFQGRVTMTRDTSTSTVYMELSSLRSEDTAVYYCAEVRGSGFNYFGMDVWGQGTLVTVSS
notes: scFv-Fc-scFv: huAb8-1 (VH-VL) N-terminal, HuAM15 (VL-VH) C-terminal, huIgG1 V273E
For B6, it took 0.5 µg/mL to reach a half-maximal effect in assay [3] (EC50).

B7: V6-8 (bispecific antibody)
chain: EVQLQESGPGLVKPSETLSLTCTVSGYSITSNYYWNWIRQPPGKGLEWMGYIRYDGSNNYNPSLKNRVTISRDTSKNQFSLKLSSVTAADTAVYYCARLDYWGQGTTVTVSSGGGGSGGGGSGGGGSGGGGSGGGGSGGGGSDAQMTQSPSSLSASVGDRVTITCRSSQSLENTNGNTFLNWFQQKPGKAPKLLIYRVSNRFSGVPSRFSGSGSGTDFTLTISSLQPEDFATYYCLQVTHVPFTFGQGTKLEIKR[human IgG1 Fc with C220S V263L (EU numbers) not written out]GGGGSGGGSGGGSGGGGSEVQLLESGGGLVQPGGSLRLSCAASGFTFSSYAMSWVRQAPGKGLEWVSAISGGGGRTYYADSVKGRFTISRDNSKNTLYLQMNSLRAEDTAVYYCAREEMAFRAYRFDIWGQGTLVTVSSGGGGSGGGGSGGGGSGGGGSGGGGSGGGGS[about 100 residues not written out]
In assay [1], B7 displayed a Kd of 14 nM, a koff of 0.014 s⁻¹ and a kon of 970000 M⁻¹ s⁻¹. In the assay with human mesothelin, this molecule had a Kd of 11 nM, a koff of 0.0015 s⁻¹ and a kon of 130000 M⁻¹ s⁻¹. In assay [2], this molecule displayed a Kd of 11 nM, a koff of 0.013 s⁻¹ and a kon of 1.3e+06 M⁻¹ s⁻¹.

B8: B44 (bispecific antibody, IgG1)
chain: SYELTQPPSVSVSPGQTASITCSGDKLGDKYASWYQQKPGQSPVLVIYQDNRRPSGIPERFSGSNSGNTATLTISGTQAMDEADYYCQAWDSDTYVFGTGTKVTVLGQDLSGGGGSGGGGSGGGGSGGGGSTGEVQLVQSGAEVKKPGASVKVSCKASGDTFKRYYVHWVRQAPGQGLEWMGIINPSGVSTTYAQKFQGRVTMTRDTSTSTVYMELSSLRSEDTAVYYCAEVRGSGFNYFGMDVWGQGTLVTVSS[human IgG1 Fc with C220S V273E (EU numbers) not written out]VDGASSPVNVSSPSVQDIEVQLVQSGAEVKKPGSSVKVSCKASGYTFTDYYINWVRQAPGQGLEWIGWIFPGSGSVYCNEQFKGRATLTVDRSTSTAYMELSSLRSEDTAVYFCASSLGKFAYWGQGTLVTVSSDLSGGGGSGGGGSGGGGSGGGGSTGDIQMTQSPSSLSASVGDRVTITCKASQSVVTAVAWYQQKPGKSPKLLIYSASNRYTGVPSRFSGSGSGTDFTLTISSLQPEDFATYFCQQYSSYPYTFGGGTKVEIKR
notes: HuAM15 (VL-VH) N-terminal, huAb8-1 (VH-VL) C-terminal, huIgG1 V273E
Take B8: in assay [3], the EC50 is 0.8 µg/mL.
